Experimental data: PubChem BioAssay AID485281 (National Center for Advancing Translational Sciences (NCATS), 2010)
About 260 (0.074%) of roughly 350,000 compounds were called active. The shares of active, inactive and inconclusive entries below differ from those in the screen. Calls come from the whole dose curve; as a rule, active = well fitted inhibition curve with a large enough effect; inconclusive = small, poorly fitted or top-dose-only effect; inactive = no such curve, though single readings can be large or run the other way. A potency beside an inconclusive call is a rough fit, not a confirmed value.

Biological target: Ferritin light chain (Equus caballus) (UniProt P02791)
Assay: qHTS Assay for Identification of Novel General Anesthetics; note: nearly all actives have a fitted effect of over 20% in size
Settings: apoferritin/1-aminoanthracene competitive binding, fluorescence; series mostly up to 77.5 µM
Outline: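 Read-out: endpoint 1-AMA fluorescence, excitation 380 nm and emission 535 nm, after compounds sit 10 min at room temperature with 10 uM horse-spleen apoferritin in 50% saturated 1-AMA/PBS. Values come from four-parameter Hill fits.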
Potency is the fitted concentration of half-maximal effect; tags give direction and shape of the fitted curve.

Chain of UniProt P02791 (P02791 whole entry, looked up): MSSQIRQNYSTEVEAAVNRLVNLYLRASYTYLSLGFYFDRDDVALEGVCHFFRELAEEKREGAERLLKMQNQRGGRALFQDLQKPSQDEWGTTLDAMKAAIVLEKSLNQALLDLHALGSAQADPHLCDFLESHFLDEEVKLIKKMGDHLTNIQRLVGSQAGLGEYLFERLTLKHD

SMILES	Potency
N#C/C(=C/c1ccccc1[N+](=O)[O-])c1nc(C2CC2)cs1	inconclusive: 50.1 µM [inhibitor, single point]
COc1ccccc1OCCNC(=O)c1cc([N+](=O)[O-])cc([N+](=O)[O-])c1	inconclusive: 20 µM [inhibitor, partial curve]
C[N+]1(C2CCC3CCCC2C3O)CCCC1 (stereo not drawn)	inactive
CCCCCCCCCCOC(=O)Cn1c(COc2ccccc2)[n+](C)c2ccccc21	inactive
COc1ccc(Nc2ccc3c(c2)=NC2(CCCCC2)[N+]=3[O-])cc1	inconclusive: 35.5 µM [inhibitor, partial curve]
CC(C)NC(=O)c1ccc(-c2ccccc2C(F)(F)F)o1	inactive
CCCn1nnc2ccccc2c1=O	inactive
CCc1cccc(NC(=O)COC(=O)c2cn(CC)c3nc(C)ccc3c2=O)c1	inconclusive: 7.94 µM [inhibitor, full curve, poor fit]
Cc1ncc(CO)c2c1Oc1nc(-c3ccccc3F)nc(SCC(=O)N(C)c3ccccc3)c1C2	inconclusive: 39.8 µM [inhibitor, single point]
Cc1cc(Nc2ccccc2)n(CCOC(=O)COc2ccccc2)n1	inconclusive: 28.2 µM [inhibitor, partial curve]
Cn1c(=O)c2cc(S(=O)(=O)NCCC(=O)NC3CCCCCC3)ccc2n(C)c1=O	inconclusive: 31.6 µM [inhibitor, single point]
Cc1ccc2c(c1)N(C(=O)CSc1nncn1C)C(C)(C)c1ssc(=S)c1-2	inconclusive: 31.6 µM [inhibitor, partial curve]
O=c1sc(Nc2ccccc2)nc2ccsc12	inconclusive: 20 µM [inhibitor, partial curve]
O=C(CCNc1ccc(F)cc1)c1cc2ccccc2o1	inactive
NS(=O)(=O)c1ccc(NC(=O)C2(c3ccccc3)CCCC2)cc1	inconclusive: 25.1 µM [inhibitor, partial curve]
CCCc1cc(C(=O)NNC(=S)NC(C)c2ccccc2)cs1 (stereo not drawn)	inconclusive: 56.2 µM [inhibitor, single point]
COc1ccccc1CNC(=O)c1ccccc1OC	inconclusive: 50.1 µM [inhibitor, single point]
O=C1Nc2ccccc2Oc2cc([N+](=O)[O-])cc(Oc3ccccc3)c21	inactive
CC1(C)CC(=O)C(=CN2CCN(C(=O)c3ccco3)CC2)C(=O)C1	inconclusive: 28.2 µM [inhibitor, partial curve]
CCOC(=O)N1CCc2c(sc3c2C(=O)NC(c2ccc(N(C)C)cc2)N3)C1 (stereo not drawn)	inactive
Cc1ccc(NC(=O)CSc2nc(=O)cc(N)n2-c2ccccc2)cc1	inconclusive: 31.6 µM [inhibitor, partial curve]
O=C(N/C=C\c1ccccc1)NCc1ccc(Cl)cc1Cl	inconclusive: 22.4 µM [inhibitor, partial curve]
O=C(NNC(=O)c1cnccn1)c1ccc(Cl)c(Cl)c1	inactive

SMILES	Potency
S=c1[nH]ncn1/N=C/c1ccc(Br)cc1	inconclusive: 28.2 µM [inhibitor, single point]
O=c1cc(CN2CCN(c3ccccc3F)CC2)c2cc3c(cc2o1)CCCC3	inactive
O=C(Nc1cccc(F)c1)N1CCCCCC1	inconclusive: 12.6 µM [inhibitor, partial curve]
Cc1cc(=O)[nH]c(SCC(=O)NC(C)C2CC3CCC2C3)c1C#N (stereo not drawn)	inconclusive: 31.6 µM [inhibitor, partial curve, poor fit]
Cc1ccc2c(c1)N(C(=O)CCC(=O)NC1CCC(C)CC1)CCO2 (stereo not drawn)	inconclusive: 25.1 µM [inhibitor, partial curve]
COC(=O)C1=NN(C(=O)c2ccc(C)cc2)C(O)(c2ccc(Cl)cc2)C1 (stereo not drawn)	inconclusive: 17.8 µM [inhibitor, partial curve]
O=[N+]([O-])c1ccc(COc2cccc(CNc3ccc(F)cc3)c2)cc1	inconclusive: 28.2 µM [inhibitor, partial curve]
CC(c1ccccc1)C1CC(=O)N(C2CCCCC2)C1=O (stereo not drawn)	inconclusive: 22.4 µM [inhibitor, partial curve]
O=Cc1coc2ccc3ccccc3c2c1=O	inconclusive: 17.8 µM [inhibitor, partial curve]
O=[N+]([O-])c1ccccc1-c1ccc(C(=S)N2CCCC2)o1	active: 56.2 µM
CC(C)C(NC(=O)c1ccc(C(C)(C)C)cc1)C(=O)Nc1cccc(S(N)(=O)=O)c1 (stereo not drawn)	inconclusive: 25.1 µM [inhibitor, partial curve]
CCCOc1ccc(C2c3c(-c4ccccc4O)n[nH]c3C(=O)N2CCc2ccccc2)cc1OCC (stereo not drawn)	inactive
O=C(NCCCO)NC12CC3CC(CC(C3)C1)C2	inconclusive: 15.8 µM [inhibitor, partial curve, poor fit]
COc1ccc(-n2cnc3cc(NCc4cccs4)ccc32)cc1	inconclusive: 11.2 µM [inhibitor, full curve, poor fit]
CCOc1ccc(C(C)=O)cc1CSc1nnc(-c2ccoc2C)n1N	inconclusive: 35.5 µM [inhibitor, single point]
NC(=O)C1(N2CCCCC2)CCN(C(=O)c2ccc(C#Cc3ccccc3)o2)CC1	inconclusive: 31.6 µM [inhibitor, partial curve]
O=C(CSc1nnc(-c2cccnc2)n1Cc1ccco1)c1ccc(Br)cc1	inconclusive: 10 µM [inhibitor, partial curve]
CCN(CC)S(=O)(=O)c1cc([N+](=O)[O-])ccc1NNC(=O)Nc1ccc(F)cc1	inconclusive: 15.8 µM [inhibitor, partial curve]
O=C(NCc1ccc(Cl)cc1)c1noc2c1CCCCC2	inconclusive: 31.6 µM [inhibitor, single point]
O=C(N/N=C/c1ccc([N+](=O)[O-])o1)c1sc2ccccc2c1Cl	inactive
O=C(/C=C/Nc1cccc(C(F)(F)F)c1)c1ccc(Oc2ncccn2)cc1	inconclusive: 22.4 µM [inhibitor, partial curve]
Cc1ccc(NC2CCCN(C(=O)c3cccs3)C2)cc1C (stereo not drawn)	inconclusive: 10 µM [inhibitor, partial curve]
CCOc1ccc(C(=O)N(Cc2ccc(C(C)C)cc2)Cc2ccco2)cc1	inactive

SMILES	Potency
COc1ccc(NC(=S)NC(=O)c2ccc(Br)o2)cc1	inactive
Cc1ccc(S(=O)(=O)N2CCSC2)cc1C	inconclusive: 14.1 µM [inhibitor, partial curve]
Cc1cc2c(cc1NS(=O)(=O)c1ccc(Br)cc1)n(C)c(=O)c(=O)n2C	inactive
CC(=O)c1c(C)[nH]c(C(=O)OCc2ccccc2)c1C	inactive
O=C(NC(CSCc1ccccc1)C(=O)N/N=C/c1ccc(O)cc1O)c1ccc([N+](=O)[O-])cc1 (stereo not drawn)	inconclusive: 17.8 µM [inhibitor, partial curve]
O=C(Nc1ccc(Oc2ccccc2)cc1)C1CCN(c2c3c(nc4ncnn24)CCC3)CC1	inconclusive: 8.91 µM [inhibitor, partial curve]
CCN(C(=O)c1ccc2c(Cl)c3c(nc2c1)CCC3)c1ccc(C)c(C)c1	inconclusive: 39.8 µM [inhibitor, single point]
Cc1cc(C(=O)N2CCCc3ccccc32)ccc1[N+](=O)[O-]	inconclusive: 25.1 µM [inhibitor, partial curve]
CCOC(=O)C1=C(C)N(C)C(=S)NC1c1ccccc1Cl (stereo not drawn)	inconclusive: 39.8 µM [inhibitor, single point]
CC(C)n1c(-c2ccc(C(C)(C)C)cc2)n[nH]c1=S	inconclusive: 28.2 µM [inhibitor, single point]
Cc1ccc(S(=O)(=O)NCCNc2ccc([N+](=O)[O-])cc2C(F)(F)F)cc1	inconclusive: 17.8 µM [inhibitor, partial curve]
Cc1ccc(OCCSc2nc(-c3ccccc3C)nc3cc(=O)[nH]n23)cc1Cl	inconclusive: 20 µM [inhibitor, partial curve, poor fit]
Cc1nn(-c2nc(-c3ccccc3)cc(C(F)(F)F)n2)c(C)c1Cl	inconclusive: 14.1 µM [inhibitor, partial curve]
COc1cccc(OC)c1C(=O)NCCc1sc(-c2cccc(F)c2)nc1C	inconclusive: 28.2 µM [inhibitor, partial curve]
COC(=O)NCC12CC3CC(C1)CC(CNC(=O)OC)(C3)C2	inconclusive: 22.4 µM [inhibitor, partial curve]
O=C(N(c1ccccc1)c1ccccc1)N(c1ccccc1)c1ccccc1	inactive
Cc1cc(C(F)(F)F)n(-c2nc(C(=O)NN)cs2)n1	inconclusive: 28.2 µM [inhibitor, single point]
O=C(O)c1ccccc1C(=O)Nc1ccc(-n2ccc(C(F)(F)F)n2)cc1	inconclusive: 31.6 µM [inhibitor, partial curve]
CN1CCN(NC(=O)/C=C/c2ccc(C(C)(C)C)cc2)CC1	inconclusive: 50.1 µM [inhibitor, partial curve]
COc1ccc(NC(=O)CCc2nc(-c3ccc(C)cc3)no2)cc1Cl	inconclusive: 10 µM [inhibitor, partial curve]
O=[N+]([O-])c1ccc(C2CCCC/C2=N/OCc2ccc(F)cc2)c([N+](=O)[O-])c1 (stereo not drawn)	inconclusive: 35.5 µM [inhibitor, partial curve]
O=C(NCc1ccccc1)C1(C(F)(F)F)C/C(=C\Cc2ccccc2)CCCO1 (stereo not drawn)	inactive
